Laboratory results as given in PubChem BioAssay AID588579 (National Center for Advancing Translational Sciences (NCATS), 2011).
Where “and” joins values, the source holds several entries; their conditions need not be identical. Equal entries are not always repeated. Screen size: about 400,000 compounds; about 2,200 (0.55%) were called active. This list was built around the results that the source calls inconclusive (neither active nor inactive); the mix of calls is not that of the screen. The call rests on the fitted dose curve; in most records, active means well fitted inhibition curve with a large enough effect; inconclusive means small, poorly fitted or top-dose-only effect, or another doubt; inactive means no such curve, though single readings can be large or run the other way. Potencies of inconclusive entries are doubtful fits and often do not repeat.

Target: DNA polymerase kappa (Homo sapiens) (UniProt Q9UBT6)
Chain of UniProt Q9UBT6 (Q9UBT6 whole entry, looked up): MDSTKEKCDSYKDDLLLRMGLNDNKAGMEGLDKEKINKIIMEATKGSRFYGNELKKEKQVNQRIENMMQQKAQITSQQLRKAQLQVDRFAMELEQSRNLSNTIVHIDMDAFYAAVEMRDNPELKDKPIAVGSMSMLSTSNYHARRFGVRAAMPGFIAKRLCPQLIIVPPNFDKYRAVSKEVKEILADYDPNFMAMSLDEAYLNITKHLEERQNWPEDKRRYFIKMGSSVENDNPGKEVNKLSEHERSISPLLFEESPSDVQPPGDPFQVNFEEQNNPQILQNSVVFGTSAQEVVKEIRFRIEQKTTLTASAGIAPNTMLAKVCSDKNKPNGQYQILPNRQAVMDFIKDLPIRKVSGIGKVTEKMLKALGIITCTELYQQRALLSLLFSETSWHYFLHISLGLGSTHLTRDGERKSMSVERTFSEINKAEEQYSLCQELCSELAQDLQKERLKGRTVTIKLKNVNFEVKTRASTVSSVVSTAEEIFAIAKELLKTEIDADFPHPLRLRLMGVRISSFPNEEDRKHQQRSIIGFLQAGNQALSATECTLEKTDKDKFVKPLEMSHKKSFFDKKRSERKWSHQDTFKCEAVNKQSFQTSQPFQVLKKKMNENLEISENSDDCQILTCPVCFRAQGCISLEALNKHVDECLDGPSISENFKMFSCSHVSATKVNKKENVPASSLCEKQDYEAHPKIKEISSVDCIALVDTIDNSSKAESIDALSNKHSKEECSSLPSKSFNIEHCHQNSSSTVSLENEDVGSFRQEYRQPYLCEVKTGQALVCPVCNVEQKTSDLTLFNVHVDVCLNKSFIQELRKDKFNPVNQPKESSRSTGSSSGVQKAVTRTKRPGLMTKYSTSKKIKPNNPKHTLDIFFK
Assay: qHTS for Inhibitors of Polymerase Kappa
Conditions: purified Pol kappa, fluorescent DNA synthesis assay, 10 min; series mostly up to 107 µM; activity, negative = inhibition: at the top concentration
Outline: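 Fluorescent qHTS in 1536-well format: enzyme (10 nM) and compound sat 15 min at room temperature before 50 nM substrate (final) was added. Signal taken at 0 and 10 min; no-enzyme buffer wells were negative controls.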
On the % scale 0 is the no-effect control and ±100 the full control effect; potency means the concentration at half of the fitted maximal effect; tags describe the fitted curve by direction and shape.

SMILES	Potency	activity, negative = inhibition
CCC(=O)OC1C2CC3=C4CC(=O)OC(c5ccoc5)[C@]4(C)CCC3[C@@](C)(C2=O)C(CC(=O)OC)C1(C)C (some centres not stated)	inconclusive: 10 µM [inhibitor, partial curve, poor fit]	–
c1ccc2c(c1)ccn2-n1ccc2ccccc21	–	inactive: -17.3%
O=C1c2ccccc2C(=O)N1CCc1csc(NNc2nc(CCN3C(=O)c4ccccc4C3=O)cs2)n1	active: 89.1 µM	–
C=CCN(C(=O)Cc1cccs1)c1nc(-c2ccc(S(C)(=O)=O)cc2)cs1	inconclusive: 50.1 µM [inhibitor, partial curve]	–
C=CCn1c(SCC(=O)NC(=O)NCc2ccco2)nc2sc(CC)cc2c1=O	inconclusive: 89.1 µM [inhibitor, single point]	–
CN(C(=O)COC(=O)c1nc(Cl)c(Cl)c(Cl)c1Cl)C1CCS(=O)(=O)C1 (configuration not stated)	–	inactive: -17.7%
COC(=O)c1ccc(COc2ccc(/C=C/C(=O)c3ccc(OC)c(CSCC(=O)O)c3)cc2OC)cc1	inconclusive: 100 µM [inhibitor, single point]	–
O=C(Cn1nc(C(F)(F)F)c2c1CCC2)NCc1ccc(F)cc1	inconclusive: 89.1 µM [inhibitor, partial curve, poor fit]	–
Cc1ccc2nc(/C(C#N)=C/c3ccc(O)c(O)c3)[nH]c2c1	inconclusive: 79.4 µM [inhibitor, partial curve, poor fit]	–
O=C(CCC(=O)c1cccs1)Nc1ccc(N2CCCCC2)cc1	inconclusive: 100 µM [inhibitor, single point]	–
CCOC(=O)Cc1cc(=O)n(-c2nc3ccccc3s2)[nH]1	active: 79.4 µM	–
COc1ccc(CNC(=O)C2CCN(c3nc(OC)nc(OC)n3)CC2)cc1	–	inactive: -1.14%
O=C(Nc1nc(-c2cccc3ccccc23)cs1)c1cnccn1	–	inactive: -10.1%
O=C1C=CC(=O)c2c(O)c(N3CCN(CCO)CC3)c(Cl)c(O)c21	active: 22.4 µM	–
CC[N+]1(CC(=O)c2ccc(OC)cc2)CCCCC1	–	inactive: 0.924%
C/C(=C1/SC(=S)N(CCC(=O)O)C1=O)c1ccc(O)cc1	inconclusive: 56.2 µM [inhibitor, partial curve, poor fit]	–
COc1cc(-c2noc(-c3ccc(NCc4ccccc4)c([N+](=O)[O-])c3)n2)cc(OC)c1OC	–	inactive: -14.6%
COc1ccc(NC(=O)/C(C#N)=C\c2ccc(Br)o2)cc1	active: 79.4 µM	–
O=C(O)CCc1ccc(-c2cccs2)o1	inconclusive: 22.4 µM [inhibitor, full curve, poor fit]	–
Cc1cnn(C(=S)NCc2ccco2)c1	inconclusive: 89.1 µM [inhibitor, single point]	–
O=[N+]([O-])c1ccc(-c2nc(-c3ccc(F)cc3)c(-c3ccncc3)[nH]2)cc1	inconclusive: 18.9 µM [inhibitor, partial curve, poor fit]	–
CCc1ccc(CNC(=O)CN2C(=O)c3cccnc3Oc3ccc(Cl)cc32)cc1	inconclusive: 89.1 µM [inhibitor, partial curve, poor fit]	–
O=S1(=O)CCOC[C@H](c2ccccc2)N1Cc1cccc(Cl)c1	inconclusive: 89.1 µM [inhibitor, partial curve]	–
O=C(CSc1ccncc1)Nc1ccc(S(=O)(=O)Nc2nccs2)cc1	inconclusive: 89.1 µM [inhibitor, single point]	–

SMILES	Potency	activity, negative = inhibition
COc1ccccc1/C=c1\sc2nc(-c3ccco3)nn2c1=O	active: 31.6 µM	–
COCCCn1c(SCC(=O)Nc2sc3c(c2C#N)CCCC3)nnc1-c1ccncc1	inconclusive: 100 µM [inhibitor, single point]	–
CCS(=O)(=O)N1Cc2ccccc2CC1C(=O)Nc1nnc(SCc2ccc(C#N)cc2)s1 (configuration not stated)	inconclusive: 79.4 µM [inhibitor, partial curve, poor fit]	–
O=S(=O)(NCCc1nnc2ccc(SCc3ccc(Cl)cc3Cl)nn12)c1ccccc1	inconclusive: 100 µM [inhibitor, single point]	–
O=C(Cc1cccc2ccccc12)Nc1cc(Cl)ccc1C(=O)O	–	inactive: -4.8%
COc1ccc(C(=O)COC(=O)c2ccc3c(c2)NC(=O)CS3)c(OC)c1	inconclusive: 100 µM [inhibitor, single point]	–
NC(=O)COC(=O)c1c2c(nc3ccccc13)CCC2	inconclusive: 79.4 µM [inhibitor, partial curve, poor fit]	–
CC(=O)N1CCc2cc(N=NC3=C(O)CC(C)(C)CC3=O)ccc21	inconclusive: 89.1 µM [inhibitor, single point]	–
COC(=O)c1cc(S(=O)(=O)N2CCCCC2)c[nH]1	inconclusive: 79.4 µM [inhibitor, single point]	–
CCC(=O)N1c2nc(-c3ccco3)nn2C2(CCCCC2)[C@@H]2CCCC[C@@H]21	–	inactive: -1.82%
C[C@@](O)(/C=C/[C@H]1CC=CC(=O)O1)[C@@H](C[C@@H](O)\C=C/C=C\C=C\CO)OP(=O)(O)O	inconclusive: 8.44 µM [inhibitor, partial curve, poor fit]	–
CCn1cc(S(=O)(=O)CC(=O)Nc2cccc(C)c2)c2ccccc21	–	inactive: -6.49%
CNc1ccccc1C(=O)OC(C)C(=O)Nc1ccc(Cl)cn1 (configuration not stated)	–	inactive: -19%
CCn1c(SCc2nc3sc(C(=O)O)c(C)c3c(=O)[nH]2)nc2ccccc21	active: 3.55 µM	–
CCCn1cc(S(=O)(=O)c2cc(C)ccc2C)c(=O)c2cc(F)c(N3CCOCC3)cc21	inconclusive: 79.4 µM [inhibitor, partial curve]	–
O=C(O)C1Nc2c(O)cccc2C2C=CCC12 (configuration not stated)	active: 10 µM	–
COc1ccc(OC)c2c(=S)c3ccccc3[nH]c12	inconclusive: 6.31 µM [inhibitor, partial curve]	–
O=C(CC1SC(=O)NC1=O)Oc1ccc(/C=N/NC(=O)c2ccccc2O)cc1 (configuration not stated)	inconclusive: 89.1 µM [inhibitor, single point]	–
O=C(Cn1cnc([N+](=O)[O-])n1)c1ccc(O)c(O)c1	inconclusive: 4.47 µM [inhibitor, full curve, poor fit]	–
C=CC#CC[N+]1(CC#Cc2ccccc2)CCOCC1	inconclusive: 35.5 µM [inhibitor, single point]	–
CSc1cccc(NC(=O)Cn2c3ncccc3c(=O)n2-c2ccc(C)cc2)c1	–	inactive: -3.2%
CCCCCCCCCCOc1cc(OCCCCCCCCCC)cc(N(CC(=O)O)CC(=O)O)c1	inconclusive: 7.52 µM [inhibitor, single point]	–
COc1ccc(CNC(=O)Cc2ccc(NC(=O)C3=C(C)OCCS3)cc2)cc1	inconclusive: 89.1 µM [inhibitor, single point]	–
O=C(COC(=O)c1cc(=O)[nH]c2ccccc12)NCc1cccs1	–	inactive: -1.55%

SMILES	Potency	activity, negative = inhibition
O=C(COC(=O)c1cncc(Br)c1)Nc1nnc(-c2ccccc2)o1	inconclusive: 100 µM [inhibitor, single point]	–
Cc1cccc(-n2nc(C)c3c(C(=O)O)cc(-c4cccs4)nc32)c1	–	inactive: -6.39%
COc1ccc(-c2oc3cc(O[C@@H]4OC(CO)C(O)C(O)C4O)c(OC)c(O)c3c(=O)c2OC)cc1O (some centres not stated)	inconclusive: 44.7 µM [inhibitor, single point]	–
COCCN(C(=O)COC(=O)c1cc2c(s1)CCC2)c1c(N)n(Cc2ccccc2)c(=O)[nH]c1=O	active: 4.47 µM	–
COCCNc1cc(-c2ccccc2C)ncn1	active: 31.6 µM	–
CC(C)c1ccc(OCC(=O)Nc2c(Cl)ccc3nsnc23)cc1	–	inactive: 4.58%
O=C(Nc1cc2c(oc1=O)CCCC2=O)c1ccc(Cl)cc1	active: 17.8 µM	–
Nc1nc2c(c(=O)[nH]1)C(c1ccccc1)C1=C(N2)c2ccccc2C1=O (configuration not stated)	–	inactive: -11.9%
C/C(N)=C(/C#N)C(=O)CSc1nc2ccccc2c(=O)n1Cc1ccc(F)cc1	active: 79.4 µM	–
CC(C)N1C(=O)S/C(=C\c2ccc(-c3ccc(Cl)c(C(=O)O)c3)o2)C1=O	active: 50.1 µM	–
COc1ccc(-n2c(=O)c3c4c(sc3n(Cc3cc(C)ccc3C)c2=O)CN(C(C)=O)CC4)c(OC)c1	inconclusive: 89.1 µM [inhibitor, single point]	–
CCN(CC)CCCNc1nc2cc(OC)c(OC)cc2c2nc(-c3cccnc3)nn12	inconclusive: 79.4 µM [inhibitor, single point]	–
CCCCCNC(=O)c1ccc2c(=O)n(CCOC)c(=O)[nH]c2c1	–	inactive: -2.7%
Cc1cc(OC(=O)c2cccc(Br)c2)c([N+](=O)[O-])c(=O)[nH]1	–	inactive: -20.4%
COc1ccc(Cl)cc1NC(=O)CCS(=O)(=O)c1ccc(Br)cc1	active: 79.4 µM	–
O=C/C=C/c1c(-c2ccccc2)cc2oc3ccccc3cc1-2	inconclusive: 89.1 µM [inhibitor, single point]	–
Cc1ccc(C(=O)C(OC(=O)CNC(=O)COc2ccccc2C)c2ccccc2)cc1 (configuration not stated)	–	inactive: 0.864%
COc1ccc(Cn2c(CNS(=O)(=O)c3ccc4c(c3)CCCC4)nc3cccnc32)cc1	–	inactive: -2.63% [at 60.1 µM]
Cc1cccc(CN2CC34C=CC(CC3S2(=O)=O)O4)c1 (configuration not stated)	–	inactive: 9.18%
O=C(Nc1nnc(-c2ccncc2)s1)C1CCCO1 (configuration not stated)	–	inactive: -2.27%
CCc1cccc(NC(c2nnc(-c3ccccc3)o2)c2ccc(F)cc2Cl)c1 (configuration not stated)	–	inactive: -23.2%
CN1CC[C@@]2(CCCN(S(=O)(=O)c3ccccc3)C2)C1	–	inactive: -6.62% [at 60.1 µM]
CC(=O)CS(=O)(=O)c1ccc(Oc2ccc(S(=O)(=O)CC(C)=O)cc2)cc1	inconclusive: 89.1 µM [inhibitor, single point]	–
O=C(O)c1cc(O)c2c(c1)C(=O)c1cccc(O)c1C2=O	active: 794 nM and active: 50.1 µM	–
